Source: paper PMC12005928
Results are given in words; binding and its absence hold for the method and conditions named. For some assays here: Binding seen in cells or lysates may run through a third protein. Some results given as binding are weak or reduced against the parent protein; the word gives no strength. For some assays here: Where a sequence is shown, tags or fusion partners need not be part of it.

Sequences of proteins named here, by UniProt entry; tags and fusion partners are left off.
UniProt Q96AE4: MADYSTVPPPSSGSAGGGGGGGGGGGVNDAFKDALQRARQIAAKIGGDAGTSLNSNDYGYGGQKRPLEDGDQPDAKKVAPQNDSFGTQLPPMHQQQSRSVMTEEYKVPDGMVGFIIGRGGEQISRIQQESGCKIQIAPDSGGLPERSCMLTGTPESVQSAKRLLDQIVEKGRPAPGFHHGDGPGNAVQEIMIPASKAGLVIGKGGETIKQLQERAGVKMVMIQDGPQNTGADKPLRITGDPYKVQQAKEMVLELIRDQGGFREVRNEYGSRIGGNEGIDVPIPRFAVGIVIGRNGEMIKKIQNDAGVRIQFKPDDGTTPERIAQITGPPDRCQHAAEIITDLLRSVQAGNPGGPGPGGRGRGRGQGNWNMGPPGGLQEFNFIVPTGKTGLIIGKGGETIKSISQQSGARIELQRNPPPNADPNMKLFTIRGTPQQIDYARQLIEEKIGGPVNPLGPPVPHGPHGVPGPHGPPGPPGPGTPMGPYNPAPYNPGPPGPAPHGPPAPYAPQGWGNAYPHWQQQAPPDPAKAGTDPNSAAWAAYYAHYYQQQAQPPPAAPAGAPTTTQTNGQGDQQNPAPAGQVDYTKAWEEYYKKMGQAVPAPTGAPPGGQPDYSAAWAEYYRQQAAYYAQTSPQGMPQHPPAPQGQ
UniProt Q96I24: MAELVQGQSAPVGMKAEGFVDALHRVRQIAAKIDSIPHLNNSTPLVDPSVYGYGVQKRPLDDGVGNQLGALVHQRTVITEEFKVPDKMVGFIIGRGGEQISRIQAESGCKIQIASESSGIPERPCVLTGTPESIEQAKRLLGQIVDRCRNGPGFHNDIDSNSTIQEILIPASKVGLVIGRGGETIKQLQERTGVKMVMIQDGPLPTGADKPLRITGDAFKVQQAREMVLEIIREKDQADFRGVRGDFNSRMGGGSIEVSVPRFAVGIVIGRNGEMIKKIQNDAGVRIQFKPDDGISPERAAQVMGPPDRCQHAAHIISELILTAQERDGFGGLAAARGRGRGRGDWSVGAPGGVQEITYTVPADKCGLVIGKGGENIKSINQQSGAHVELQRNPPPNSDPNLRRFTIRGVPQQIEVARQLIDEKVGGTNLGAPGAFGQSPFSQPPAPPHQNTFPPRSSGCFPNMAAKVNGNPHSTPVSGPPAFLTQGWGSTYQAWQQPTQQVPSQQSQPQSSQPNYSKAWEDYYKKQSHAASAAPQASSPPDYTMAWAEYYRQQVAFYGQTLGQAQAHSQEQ

Key:
[1] = biological target: Tat-FLAG (pFI-Tat(86)-FLAG-WT) (HIV-1) (UniProt P04608); test: co-IP; IP with anti-FLAG antibody from lysates of HEK293T cells 48 h after transfection with Tat-FLAG and HA-tagged FUBPs; 1 mg lysate, 4 ug antibody overnight at 4 C, Dynabeads Protein G; IP buffer 50 mM Tris-HCl pH 7.5, 1 mM EDTA, 150 mM NaCl, 1% Triton X-100; western blot; in Figure 5G pretreated or not with RNase before IP
[2] = biological target: TatΔ1-21 aa (Tat-FLAG deletion variant) (HIV-1) (UniProt P04608); test: as above
[3] = biological target: His-Tat (recombinant His-tagged Tat) (HIV-1) (UniProt P04608); test: co-IP; recombinant protein interaction assay: 1 ug His-Tat and 10 ug GST-FUBP3 mixed in TBS buffer at 4 C, IP with anti-His antibody and Dynabeads Protein G, western blot; both purified

Molecule | binding [1] | binding [2] | binding [3]
FUBP1-HA (from UniProt Q96AE4 1-644) | no binding | – | –
FUBP3-HA (FUBP3-HA-WT, far-upstream element-binding protein 3) (from UniProt Q96I24 1-572) | binds | binds | –
GST-FUBP3 (recombinant N-terminal GST-FUBP3 fusion protein) (from UniProt Q96I24 1-572) | – | – | binds
FUBP2-HA (protein, UniProt Q92945 1-711) MSDYSTGGPPPGPPPPAGGGGGAGGAGGGPPPGPPGAGDRGGGGPGGGGPGGGSAGGPSQPPGGGGPGIRKDAFADAVQRARQIAAKIGGDAATTVNNSTPDFGFGGQKRQLEDGDQPESKKLASQGDSISSQLGPIHPPPRTSMTEEYRVPDGMVGLIIGRGGEQINKIQQDSGCKVQISPDSGGLPERSVSLTGAPESVQKAKMMLDDIVSRGRGGPPGQFHDNANGGQNGTVQEIMIPAGKAGLVIGKGGETIKQLQERAGVKMILIQDGSQNTNVDKPLRIIGDPYKVQQACEMVMDILRERDQGGFGDRNEYGSRIGGGIDVPVPRHSVGVVIGRSGEMIKKIQNDAGVRIQFKQDDGTGPEKIAHIMGPPDRCEHAARIINDLLQSLRSGPPGPPGGPGMPPGGRGRGRGQGNWGPPGGEMTFSIPTHKCGLVIGRGGENVKAINQQTGAFVEISRQLPPNGDPNFKLFIIRGSPQQIDHAKQLIEEKIEGPLCPVGPGPGGPGPAGPMGPFNPGPFNQGPPGAPPHAGGPPPHQYPPQGWGNTYPQWQPPAPHDPSKAAAAAADPNAAWAAYYSHYYQQPPGPVPGPAPAPAAPPAQGEPPQPPPTGQSDYTKAWEEYYKKIGQQPQQPGAPPQQDYTKAWEEYYKKQAQVATGGGPGAPPGSQPDYSAAWAEYYRQQAAYYGQTPGPGGPQPPPTQQGQQQAQ | no binding | – | –
